Measured values reported in PMC4336329 (PLoS ONE, 2015).
In all, about 310,000 compounds went through this assay and about 14,000 (4.5%) showed an effect of 50% or more. The effect is printed as a negative number. The list shows a part of the results.

Each compound was assayed against human ether-à-go-go-related gene (hERG) potassium channel (human, UniProt Q12809) (assay: primary screen, population patch clamp on CHO cells stably expressing hERG).
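Note: peak tail current of the secondary pulse compared with the same well before compound.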

human ether-à-go-go-related gene (hERG) potassium channel, sequence (Q12809 whole entry, looked up): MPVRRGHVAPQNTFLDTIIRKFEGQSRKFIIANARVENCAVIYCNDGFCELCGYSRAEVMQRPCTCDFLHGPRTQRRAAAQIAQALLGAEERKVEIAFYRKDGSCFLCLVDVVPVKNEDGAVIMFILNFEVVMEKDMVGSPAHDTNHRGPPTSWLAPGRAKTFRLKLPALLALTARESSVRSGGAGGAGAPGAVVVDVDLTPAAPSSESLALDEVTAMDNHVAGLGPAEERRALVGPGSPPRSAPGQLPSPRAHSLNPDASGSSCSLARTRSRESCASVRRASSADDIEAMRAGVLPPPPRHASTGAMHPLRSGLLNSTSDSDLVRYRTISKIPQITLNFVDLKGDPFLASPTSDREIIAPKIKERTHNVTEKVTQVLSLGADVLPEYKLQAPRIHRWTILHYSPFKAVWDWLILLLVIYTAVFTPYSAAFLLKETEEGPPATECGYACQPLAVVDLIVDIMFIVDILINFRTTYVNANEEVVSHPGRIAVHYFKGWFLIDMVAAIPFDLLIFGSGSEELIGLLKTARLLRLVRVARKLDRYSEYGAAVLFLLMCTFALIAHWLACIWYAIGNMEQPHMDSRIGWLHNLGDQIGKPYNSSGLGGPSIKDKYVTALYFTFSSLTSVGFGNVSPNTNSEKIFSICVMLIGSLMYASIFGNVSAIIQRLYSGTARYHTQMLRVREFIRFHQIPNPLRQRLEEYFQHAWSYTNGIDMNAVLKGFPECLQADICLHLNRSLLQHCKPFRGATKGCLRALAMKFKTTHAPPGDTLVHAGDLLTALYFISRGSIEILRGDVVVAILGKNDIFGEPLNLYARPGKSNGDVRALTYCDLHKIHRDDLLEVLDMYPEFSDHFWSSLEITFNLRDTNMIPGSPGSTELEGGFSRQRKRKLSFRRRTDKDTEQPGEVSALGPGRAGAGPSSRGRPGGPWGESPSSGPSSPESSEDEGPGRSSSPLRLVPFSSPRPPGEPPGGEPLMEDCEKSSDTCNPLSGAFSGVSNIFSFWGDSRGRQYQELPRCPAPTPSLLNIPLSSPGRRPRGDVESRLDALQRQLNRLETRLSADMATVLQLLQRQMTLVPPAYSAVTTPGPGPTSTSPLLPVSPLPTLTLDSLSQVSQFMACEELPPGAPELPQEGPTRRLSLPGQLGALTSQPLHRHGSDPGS

Structure (SMILES) | hERG current change (%, negative = inhibition) at 10uM
CSC1=NC(NCCCO)c2c(sc3c2CC(C)(C)OC3)N1 (centres unmarked) | -7.67%
COc1cc2cc(C(c3nnnn3C3CCCC3)N3CCc4ccccc43)c(=O)[nH]c2cc1OC (centres unmarked) | 16%
CCn1c(Cc2ccccc2)nnc1SCC(=O)NC(C)(C)C | -5.03%
O=C(Nc1ncccn1)c1cc(-c2ccc(F)cc2)nc2ccccc12 | -13.5%
CCOC(=O)C1=C(CCc2ccccc2)NC(=O)NC1c1ccc2ccccc2c1 (centres unmarked) | 10.1%
CCN1C(=O)[C@@H]2[C@@H](c3ccc(-c4ccc(Cl)c(Cl)c4)c(OC)c3)N3CCC[C@@]3(C(=O)OC)[C@@H]2C1=O.O=C(O)C(F)(F)F | -3.85%
Cc1ccc(NC(=O)CCCNC(=O)c2ccc(Cl)cc2)c(Br)c1 | 15.1%
CCC1CCCCN1CCCNC(=O)c1ccc2c(=O)n(CCOC)c(=O)[nH]c2c1 (centres unmarked) | 23.5%
C=CCn1c(SCC(=O)Nc2cc(C)on2)nnc1C1COc2ccccc2O1 (centres unmarked) | -13.2%
COc1ccc(OCC(O)CNS(=O)(=O)c2cccs2)cc1 (centres unmarked) | 17.9%
COc1ccc(/C=N/NC(=S)NC2CCS(=O)(=O)C2)cc1 (centres unmarked) | 8.74%
O=Cc1c(NCCc2ccc(F)cc2)c2ccccc2[nH]c1=O | -29%
COc1ccc(C(=O)NCc2nnc(SCC(=O)NCc3ccco3)o2)cc1OC | 15.3%
CN(C)CCCNC(=O)CCc1ncc(C(F)(F)F)cc1Cl | 4.48%
COc1ccc(-c2cc(C(=O)N(C)Cc3ccccc3)c3ccccc3n2)cc1 | -4.41%
COc1cnn(Cc2ccccc2)c(=O)c1SCc1ccccc1 | -22.9%
CCOc1ccc2nc(SCC(=O)NNC(=O)c3ccco3)c(C)cc2c1 | 4.33%
O=C(CSc1nnc(Cc2ccccc2)n1-c1ccccc1)NNC(=O)Cc1ccccc1 | -4.04%
Cc1c(NC(=O)C(C)OC(=O)Cc2ccc(F)cc2)c(=O)n(-c2ccccc2)n1C (centres unmarked) | 8.45%

Structure (SMILES) | hERG current change (%, negative = inhibition) at 10uM
c1ccc(C2=NC(c3ccccc3)N=C(c3ccccc3)N2)cc1 | -6.66%
Cc1ccc(SCCNC(=O)c2ccc(C)c(S(=O)(=O)Nc3cccc(C)c3)c2)cc1 | 15.5%
O=C(CSC1=NCCS1)Nc1ccc2ccccc2c1 | 8.49%
CCCC(=O)NC(c1ccc(OC)cc1)c1ccc2cccnc2c1O (centres unmarked) | -33.9%
Cc1ccc(CCNC(=O)C2CCN(S(=O)(=O)N3CCOCC3)CC2)cc1 | 3.73%
Cc1c(NC(=O)CSc2nc3ccccc3[nH]2)c(=O)n(-c2ccccc2)n1C | 1.28%
COc1ccc(-n2nnnc2SCC(=O)c2ccc3c(c2)OCCO3)cc1 | 20.6%
COC(=O)c1ccc(COC(=O)C(CCSC)NC(=O)COc2ccccc2)cc1 (centres unmarked) | -9.2%
COc1ccc(NS(=O)(=O)c2cc(NC(=O)c3nc4nc(C)cc(C)n4n3)ccc2C)cc1 | -5.99%
Cc1cc(/C=N/n2cnnc2)c(C)n1-c1ccccc1 | -4.02%
CC(C)C(NC(=O)Nc1ccccc1)C(=O)Nc1cccc(S(=O)(=O)N(C)C)c1 (centres unmarked) | 7.26%
CC1CCN(C(=O)CCN2C(=O)C3C4C=CC(C4)C3C2=O)CC1 (centres unmarked) | 12.8%
C=CCN(C(=O)OC(C)(C)C)S(=O)(=O)NCc1ccccc1 | -4.15%
Cc1cc(C)c(NC(=O)c2cc(S(=O)(=O)N3CCOCC3)ccc2F)c(C)c1 | 1.16%
Cc1nn(CC(=O)N(C)c2c(N)n(Cc3ccccc3)c(=O)[nH]c2=O)c(C)c1[N+](=O)[O-] | -4.6%
Cc1ccc(NC(=O)NC(=O)N(c2ccccc2)S(C)(=O)=O)cc1 | 7.89%
Cc1ccc(CNC(=O)CS(=O)(=O)c2ccccc2)cc1 | 8.4%
CCOC(=O)C1=C(C)SC2=NS(=O)(=O)CCN21 | 11.7%
CCCCCc1ccc(-c2cn(CCCOCc3ccccc3)nn2)cc1 | 1.95%

Structure (SMILES) | hERG current change (%, negative = inhibition) at 10uM
CC(=O)c1cn(Cc2ccccc2)c(=O)[nH]c1=O | 4.02%
O=C(Nc1cc2c3c(c1)CC(=O)N3CCC2)c1cccc(F)c1 | -10%
O=C1NCCCC1C(=O)Nc1ccccc1C(F)(F)F (centres unmarked) | -3.53%
CC(=O)Nc1ccc([As](=O)(O)c2ccc([N+](=O)[O-])cc2)cc1 | -11.8%
Cc1cnc(C(=O)NCc2ccc(F)cc2)cn1 | 10.4%
Cc1nn(CC(=O)N2CCN(C)CC2)c(=O)c2c1sc1ccccc12 | -6.99%
CCOc1ccc2c(C)c(Cl)c(=O)oc2c1 | -3.01%
Nn1c(SCC(=O)N2CCc3ccccc3C2)nnc1-c1cccs1 | -22.8%
CC(C)c1c(C(=O)N/N=C/c2ccoc2)nnn1-c1nonc1N | 5.84%
O=C(NC1CCCC1)C(c1cccnc1)N(C(=O)c1csnn1)c1ccc(F)cc1 (centres unmarked) | -13.3%
COc1cc(/C=C2\CCC/C(=C\c3ccc(O)c(OC)c3)C2=O)ccc1O | 9.33%
CC(=O)c1cc2c(cc1NC(=O)CCNC(=O)c1ccccc1Cl)OCO2 | -9.06%
CC(C)OCCCNC(=O)c1ccc(NC(=O)C2=CSCCO2)cc1 | 17.5%
CCOC(=O)C(=CNc1cc(C)ccc1C)C(=O)OCC | -1.26%
CCCCOC(=O)c1ccc(NC(=O)CSc2nncn2C)cc1 | -4.57%
O=C(NCc1ccc(N2CCCC2=O)cc1)Nc1ccccc1 | 14.5%
O=C(Oc1ccccc1/C=C\C(=O)c1cc2ccccc2o1)c1ccccc1 | 12.3%
COC(=O)c1scc(S(=O)(=O)c2ccccc2)c1N | 14.9%
